{"source": "PubChem BioAssay AID1030", "about": "(National Center for Advancing Translational Sciences (NCATS), 2008)", "note": "The whole screen tested about 220,000 compounds, of which about 16,000 (7.3%) were called active. The inconclusive results got no clear call from the source; some entries with a clear call stand among them for comparison. Calls follow the shape of the dose curve; as a rule, active = well fitted inhibition curve with a large enough effect (not every such curve was filed as active); inconclusive = small, poorly fitted or top-dose-only effect, or another doubt; inactive = no such curve, though single readings can be large or run the other way. No potency is given beside an inconclusive call; the fits are too rough. Potency is read from the fitted curve at half-maximal effect; tags tell the direction and shape of the fitted curve.", "data": [{"molecular_target": "Aldehyde dehydrogenase 1A1 (Homo sapiens) (UniProt P00352)", "sequence (P00352 whole entry, looked up)": "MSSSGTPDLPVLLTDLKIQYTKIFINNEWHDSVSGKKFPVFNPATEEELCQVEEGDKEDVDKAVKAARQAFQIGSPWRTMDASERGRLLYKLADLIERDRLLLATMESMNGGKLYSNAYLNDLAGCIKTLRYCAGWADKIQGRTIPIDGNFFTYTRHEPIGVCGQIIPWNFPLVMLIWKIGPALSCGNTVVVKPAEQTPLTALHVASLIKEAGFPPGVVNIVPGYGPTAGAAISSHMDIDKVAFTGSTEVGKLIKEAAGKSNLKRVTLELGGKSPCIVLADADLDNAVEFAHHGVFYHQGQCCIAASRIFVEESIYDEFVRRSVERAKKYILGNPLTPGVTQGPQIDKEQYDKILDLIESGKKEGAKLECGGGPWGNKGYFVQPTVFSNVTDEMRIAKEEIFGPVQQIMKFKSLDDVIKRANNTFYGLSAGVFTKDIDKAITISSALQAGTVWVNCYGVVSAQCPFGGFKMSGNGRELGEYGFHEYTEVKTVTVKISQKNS", "test": "qHTS Assay for Inhibitors of Aldehyde Dehydrogenase 1 (ALDH1A1);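 as to activity, negative = inhibition: plate controls were no enzyme wells and a reference inhibitor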", "conditions": "Purified ALDH1A1, NADH fluorescence, propionaldehyde substrate; series mostly up to 75.3 µM; activity, negative = inhibition: at the top concentration", "values": [{"smiles": "Cc1c(Cl)c([N+](=O)[O-])nn1CC(=O)Nc1ccc2c(c1)OCO2", "activity, negative = inhibition": "inactive: -3.74%"}, {"smiles": "COc1cc2ccccc2cc1-c1nnc(COc2ccccc2)o1", "activity, negative = inhibition": "inactive: 18.4%"}, {"smiles": "CC1Cc2nc(SCC(=O)N3CCOCC3)n(-c3ccccc3)c(=O)c2S1", "note": "(stereo unspecified)", "activity, negative = inhibition": "inactive: 4.66%"}, {"smiles": "CC(C)CN1CCCC2(CCN(C(=O)c3ccco3)CC2)C1", "Potency": "inconclusive [inhibitor, single point]"}, {"smiles": "COc1ccccc1/C=C/C(=O)OCC(=O)c1c(N)n(C)c(=O)n(C)c1=O", "Potency": "inconclusive [inhibitor, single point]"}, {"smiles": "CCCOc1ccc(-c2nc(C#N)c(N3CCN(C)CC3)o2)cc1", "Potency": "inconclusive [inhibitor, partial curve]"}, {"smiles": "NC(=O)c1oc2ccccc2c1NC(=O)C1CCCCC1", "Potency": "inconclusive [inhibitor, single point]"}, {"smiles": "c1ccc2c(c1)OCC(c1csc3ncnc(N4CCCCC4)c13)O2", "note": "(stereo unspecified)", "activity, negative = inhibition": "inactive: -6.06%"}, {"smiles": "Cn1nnnc1SCC(=O)c1ccc(Br)s1", "Potency": "inconclusive [inhibitor, single point]"}, {"smiles": "Nc1nc(=S)[nH]c2c1C1(CCCC1)Cc1ccccc1-2", "activity, negative = inhibition": "inactive: -10.3%"}, {"smiles": "CCCCNC(=O)C1CCN(S(=O)(=O)c2c(C)noc2/C=C\\c2ccc(OC)cc2)CC1", "activity, negative = inhibition": "inactive: 6.81%"}, {"smiles": "CCc1ccc(N2CC(C(=O)Nc3ccc(C)c(S(=O)(=O)N4CCOCC4)c3)CC2=O)cc1", "note": "(stereo unspecified)", "Potency": "inconclusive [inhibitor, single point]"}, {"smiles": "CCOC(=O)c1cnc(SCc2cccc3ccccc23)nc1N", "Potency": "inconclusive [inhibitor, single point]"}, {"smiles": "Cc1ccc(-c2nn(-c3ccccc3)cc2NC(=O)CCl)cc1", "Potency": "active: 20 µM"}, {"smiles": "COCCNC(=S)N(CCc1c(C)[nH]c2ccc(Cl)cc12)Cc1cccs1", "Potency": "inconclusive [inhibitor, partial curve]"}, {"smiles": "CN1C2CCC1/C(=C\\c1ccccc1F)C(=O)/C2=C/c1ccccc1F", "activity, negative = inhibition": "inactive: 5.8%"}, {"smiles": "O=[N+]([O-])c1cccc(/C=N/Nc2cc(Cl)nc(-c3ccccc3)n2)c1", "Potency": "inconclusive [inhibitor, single point]"}, {"smiles": "CCOC(=O)CSC1=C(C#N)C(=O)NC2(CCCCC2)S1", "Potency": "inconclusive [inhibitor, single point]"}, {"smiles": "CC1=CC(=C(C#N)C#N)C=C(C)N1CCC(C)C", "Potency": "active: 28.2 µM"}, {"smiles": "CSCCC(C(=O)N1C[C@]2(C)C[C@H]1CC(C)(C)C2)N1C(=O)c2ccccc2C1=O", "note": "(stereo partly specified)", "Potency": "inconclusive [inhibitor, single point]"}, {"smiles": "CCCn1c(=N)c(C(=O)NCc2ccc3c(c2)OCO3)cc2c(=O)n3cccc(C)c3nc21", "Potency": "inconclusive [inhibitor, single point]"}, {"smiles": "COc1cc(/C=C/c2ccccc2)oc(=O)c1", "Potency": "inconclusive [inhibitor, partial curve]"}, {"smiles": "Cc1ccc(-c2csc3nc(C(C)C)oc(=O)c23)c(C)c1", "activity, negative = inhibition": "inactive: -13.6%"}, {"smiles": "Cc1cc2ccccc2n2c(SCC(=O)NCC3CCCO3)nnc12", "note": "(stereo unspecified)", "activity, negative = inhibition": "inactive: -5.52%"}, {"smiles": "COc1ccc(NC(=S)NCc2ccco2)c(OC)c1", "activity, negative = inhibition": "inactive: 12%"}, {"smiles": "CCOC(=O)CC(=O)CSc1nc(C)nc2c1oc1ccccc12", "Potency": "inconclusive [inhibitor, partial curve]"}, {"smiles": "O=C1NCCCC2c3c(cc(Br)c(O)c3Br)OC12N1CCCCC1", "note": "(stereo unspecified)", "Potency": "active: 7.94 µM"}, {"smiles": "O=C(O)[C@H]1C[C@@H](CP(=O)(O)O)CCN1", "Potency": "inconclusive [inhibitor, full curve]"}, {"smiles": "COc1ccc(S(=O)(=O)NC(CCSC)C(=O)NC2CCCCC2)cc1", "note": "(stereo unspecified)", "Potency": "inconclusive [inhibitor, single point]"}, {"smiles": "O=C1CC(SCc2nc3ccccc3[nH]2)C(=O)N1c1ccc(Cl)cc1", "note": "(stereo unspecified)", "Potency": "active: 25.1 µM"}, {"smiles": "CCNc1nc(NC(N)=S)nc(NC(C)(C)C)n1", "Potency": "inconclusive [inhibitor, single point]"}, {"smiles": "Cc1cc(C)n2c(=S)[nH]nc2n1", "Potency": "active: 1.41 µM"}, {"smiles": "Cc1cccc(COc2ncnc3nc[nH]c23)c1", "activity, negative = inhibition": "inactive: 1.34%"}, {"smiles": "Nc1nc(CN2CCN(c3ccccn3)CC2)nc(Nc2ccc(Cl)cc2)n1", "Potency": "inconclusive [inhibitor, partial curve, poor fit]"}, {"smiles": "N#Cc1c(N)sc(=S)c2c1CCN(Cc1ccccc1)C2", "Potency": "inconclusive [inhibitor, partial curve]"}, {"smiles": "CC(C)CCC(C)NC(=O)c1ccc2nccnc2c1", "note": "(stereo unspecified)", "Potency": "active: 20 µM"}, {"smiles": "O=C(CSc1nc2ccccc2c(=O)n1-c1ccc(SC(F)F)cc1)Nc1ccc(N2CCOCC2)cc1", "Potency": "active: 10 µM"}, {"smiles": "O=C(CSc1nc2ccc(N3CCOCC3)cc2c(=O)n1CCc1ccccc1)NCC1CCCO1", "note": "(stereo unspecified)", "Potency": "inconclusive [inhibitor, partial curve]"}, {"smiles": "Cc1cccc(C(c2c(C)nn(-c3ccccc3)c2N)c2c(C)nn(-c3ccccc3)c2N)c1", "activity, negative = inhibition": "inactive: 11.1%"}, {"smiles": "Cc1sc(NC(=O)/C=C/c2ccc(C(C)C)cc2)c(C#N)c1C", "Potency": "inconclusive [inhibitor, single point]"}, {"smiles": "c1ccc(Nc2nc(N3CCNCC3)nc(N3CCOCC3)n2)cc1", "activity, negative = inhibition": "inactive: -10.2%"}, {"smiles": "CCC(COC)NCc1cn(-c2ccc(OC)cc2)nc1-c1cccc(F)c1", "note": "(stereo unspecified)", "Potency": "inconclusive [inhibitor, single point]"}, {"smiles": "CC(C)N(C(=O)CN(C#N)c1nc(N(C)C)nc(N(C)C)n1)c1ccccc1", "Potency": "active: 8.91 µM"}, {"smiles": "COc1ccc(S(=O)(=O)Nc2cc(C)cc(C)n2)c2ccccc12", "Potency": "inconclusive [inhibitor, single point]"}, {"smiles": "COc1ccc(-c2cc(C(N)=O)nc(N3CCCCCC3)n2)cc1", "Potency": "inconclusive [inhibitor, partial curve]"}, {"smiles": "O=C(/C=C/Nc1ccc(S(=O)(=O)Nc2ncccn2)cc1)c1ccc(Cl)c(Cl)c1", "Potency": "inconclusive [inhibitor, single point]"}, {"smiles": "COc1ccc2[nH]c3c(NCCN(C(C)C)C(C)C)ncnc3c2c1", "Potency": "inconclusive [inhibitor, single point]"}, {"smiles": "C#CCSc1nnnn1-c1ccc(OCC)cc1", "activity, negative = inhibition": "inactive: -15.5%"}, {"smiles": "COc1ccc(N/C=C\\C(=O)c2ccc(Br)cc2)cc1OC", "activity, negative = inhibition": "inactive: -1.04%"}, {"smiles": "CNc1nc(-c2ccccc2)nc(-c2ccc(OC)cc2)c1C#N", "Potency": "inconclusive [inhibitor, single point]"}, {"smiles": "CC(=O)/C(=N\\Nc1ccc(Cl)cc1)Sc1nnc(-c2ccccc2)n1-c1ccccc1", "Potency": "inconclusive [inhibitor, single point]"}, {"smiles": "Cc1ccc(C(=O)OCC(=O)NCc2cccs2)c(C)c1", "activity, negative = inhibition": "inactive: 8.33%"}, {"smiles": "CC(=O)Nc1ccc(-c2nnc(SCC(=O)Nc3ccc4c(c3)oc3ccccc34)n2C)cc1", "Potency": "active: 0.398 µM"}, {"smiles": "COc1ccc(CNC(=O)c2ccc3c(=O)n(CCCN4CCCC4=O)c(=S)[nH]c3c2)cc1", "Potency": "active: 28.2 µM"}, {"smiles": "O=C(NCCN1C(=O)C2C3C=CC(C3)C2C1=O)Nc1ccccc1O", "note": "(stereo unspecified)", "Potency": "inconclusive [inhibitor, single point]"}, {"smiles": "COc1ccccc1NC(=O)c1ccccc1NS(=O)(=O)N1CCCC1", "activity, negative = inhibition": "inactive: 3.68%"}, {"smiles": "CCOC(=O)Nc1nnc(-c2ccc(OC)c(OC)c2)s1", "Potency": "inconclusive [inhibitor, partial curve]"}, {"smiles": "CO/N=C\\Cc1oc(=O)c(NC(=O)c2ccccc2)cc1C(=O)OC", "Potency": "active: 22.4 µM"}, {"smiles": "CCCCc1nnc(SCCSc2nnc(CCCC)n2N)n1N", "Potency": "active: 17.8 µM"}, {"smiles": "Cc1ccc(NC(=S)NNC(=O)c2cn(C)nc2C)cc1", "Potency": "inconclusive [inhibitor, single point]"}, {"smiles": "N#CCCN(C(=O)COC(=O)c1ccc2c(=O)n3c(nc2c1)CCC3)c1ccccc1", "Potency": "inconclusive [inhibitor, single point]"}, {"smiles": "OCCCN1c2ccccc2Nc2nnc(-c3ccccc3)cc21", "Potency": "inconclusive [inhibitor, single point]"}, {"smiles": "Cc1cccc(NCc2ccc(O)c3ncccc23)c1", "Potency": "active: 2.82 µM"}, {"smiles": "CNCC[C@H](Oc1ccccc1OC)c1ccccc1", "Potency": "inactive"}, {"smiles": "COc1cccc(CN(C)CC(=O)Nc2ccccc2C(=O)Nc2ccccc2)c1OC", "Potency": "inconclusive [inhibitor, single point]"}, {"smiles": "Cc1cccc(C)c1NC(=S)NC1CCCCC1", "activity, negative = inhibition": "inactive: -6.22%"}, {"smiles": "Cc1ccc(-c2nc(C#N)c(N3CCCCC3)o2)cc1", "Potency": "inconclusive [inhibitor, partial curve]"}, {"smiles": "CCc1ccc2[nH]c(=O)c(C(c3nnnn3CCOC)N3CCN(c4ccc(F)cc4)CC3)cc2c1", "note": "(stereo unspecified)", "Potency": "inconclusive [inhibitor, single point]"}, {"smiles": "Cc1cc(SCC(=O)N/N=C/c2ccc(O)c(O)c2O)c(C)cc1Br", "Potency": "active: 4.47 µM"}, {"smiles": "CCCCCN=Cc1c(C)[nH]n(-c2nc3ccccc3s2)c1=O", "Potency": "inconclusive [inhibitor, single point]"}, {"smiles": "O=C(Oc1ccccc1/C=C\\C(=O)c1cc2ccccc2o1)c1ccccc1", "Potency": "active: 11.2 µM"}, {"smiles": "COC(=O)c1sc2nc(C)cc(C)c2c1N", "Potency": "inconclusive [inhibitor, single point]"}, {"smiles": "COc1cc(-c2nnc(SCC(=O)c3cc(C)n(CC4CCCO4)c3C)o2)cc(OC)c1OC", "note": "(stereo unspecified)", "Potency": "inconclusive [inhibitor, single point]"}, {"smiles": "Cc1ccc(-c2nc(SCC(=O)Nc3cc(S(=O)(=O)N4CCCCC4)ccc3Cl)n[nH]2)cc1", "activity, negative = inhibition": "inactive: 2.28%"}, {"smiles": "Clc1ccc2nc(NC3=NCN(CCN4CCOCC4)CN3)nc(-c3ccccc3)c2c1", "Potency": "inconclusive [inhibitor, partial curve]"}, {"smiles": "CCC1CCc2c(sc(NC(=O)CSc3nc(-c4ccco4)cc(C(F)(F)F)n3)c2C#N)C1", "note": "(stereo unspecified)", "Potency": "inconclusive [inhibitor, single point]"}]}]}
